Reference: the supplement of paper PMC11417369
This is one part of the list.

System: PfAP2-HC AP2 domain (GST-tagged)
Assay: gcPBM binding intensity (ln(normalized median fluorescence intensity)); higher = stronger DNA binding
In short: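 The binding buffer was 1× PBS containing 1% milk, 0.2 mg/ml BSA, 0.5% salmon testes DNA and 0.03% Triton X-100. In it, GST-tagged P. falciparum DNA-binding domains expressed in E. coli were applied for 1 h to an Agilent 4 × 180k array of primer-extended double-stranded 36-bp intergenic genomic probes plus negative controls. Binding intensity, read with Alexa488 anti-GST antibody and a 488 nm scan, is the highest Masliner-normalised natural-log median intensity across replicate spots of either probe orientation.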

Row | Sequence | gcPBM binding intensity (ln)
1 | AATAGATTTTTATGCGTGCACACATTTAACAAAAAA | 9.77
2 | GTGCTAGTATTTAATACACACAATTGAAGTTCCTGA [CACACA_site1452] | 9.63
3 | TAACATCCTAATGTCACACATGTTATAGGTTTAAAT [CACACA_site5649] | 9.56
4 | TTCTGGTGTAAATGCACACAGAAGAAGAAAAAAAAA [CACACA_site3685] | 9.73
5 | TAATTTAATTTTCCAAGAAAAAAAAAAGAAAAAAGA [CACACA_negctrl_site1703] | 9.43
6 | TTTGAAATATTTATTTGTACATATACACACTTAAAT [XGTACX_site8321] | 9.68
7 | ATATTATTTTGTCAGGGTACATTCCATAAGTTTTTT [XGTACX_site6855] | 9.82
8 | TCCTTTCTTTTTTAAACATGCATATGTAATATAAAT [TGCATGCA_site979] | 9.52
9 | CCTTCATCATATTTAACACACAGAGAAAAAGCGGAT [CACACA_site274] | 9.68
10 | AAAAAAAAAAAAAAAAAAACCACAAACAAATATGAA [TGCATGCA_negctrl_site34] | 9.55
11 | CTCGTATATATAATACGTACATATTATATATATATA [XGTACX_site1704] | 9.59
12 | TTTACATACAAATTAACACACATATAGAAAAGAGAA [CACACA_site1889] | 9.88
13 | AAAAAAAATAAACACACACACATACCCATAAATATA [CACACA_site5980] | 10.4
14 | TTTTAAAATATATTTGTATATATATATATATATATA [XGTACX_negctrl_site536] | 9.47
15 | ATAATATAATAATACACACTCATTATATATATAAAG [CACACA_site3956] | 9.81
16 | GCTTGTTCAAAAATGAGTACATACAAATAGTTGTAT [XGTACX_site1770] | 9.63
17 | TATTTATGTAGATACACACCCATGTTATATGGAGGT [CACACA_site3461] | 9.67
18 | TTTCTTTTTTTTTTTATTTACCTGAATTATGTATTA [TGCATGCA_negctrl_site345] | 9.61
19 | AGTTTATTTATATACACACACATATAAATATTATAG [CACACA_site6522] | 10
20 | ATATATATTTATGTATCACACACAAAAAAAAAAAAT [CACACA_site7973] | 10.3
21 | TATATATATATATATTGTACTTATGTTTATATTCAT [XGTACX_site6258] | 9.68
22 | TTCTTTAAAATATTATGTACACATTGCGAACAGTTT [XGTACX_site5418] | 9.76

Row | Sequence | gcPBM binding intensity (ln)
23 | AATAAATAAATATATATATATATATAATATCATAAA [CACACA_negctrl_site337] | 9.78
24 | TTTTTTATTAGTATCTGTACACATTGGTATTTGTAT [XGTACX_site6682] | 9.92
25 | TTCTTAAAATATGAAAGTACATAGGCATTATATATT [XGTACX_site8400] | 9.45
26 | ATAAACTGAGTGGTTACACACAAAACCAATAACTTT [CACACA_site7601] | 9.9
27 | ATATAGACACACACATGTACATATGCCAACGTGATA [XGTACX_site3828] | 10.1
28 | ACTATATAATATAATATATTATAATATATTATATTA [GTGCAC_negctrl_site140] | 9.51
29 | TATGTATATATTTGTGCACACCAAAGTTTGATTTTA [CACACA_site1861] | 9.98
30 | TTATAATAAACCTATACACACATAAATAAATAAATA [CACACA_site2581] | 9.88
31 | AATAATATTTATTTTTGTACATATGTGCATTATAAA [XGTACX_site3682] | 9.65
32 | ATTAATTTTATATATGCACACAAAATATGTTCATAT [CACACA_site9350] | 9.94
33 | ATGATCATAAAACACACACACAAAAAAAAAAAAAAA [CACACA_site1805] | 10.1
34 | CCATGCATACATTCTTGTACACATTTCTATTATGAG [XGTACX_site39] | 9.74
35 | GAATTCAACAAAAAAAGTACTCTACATAAAATAATG [XGTACX_site175] | 9.5
36 | ATATTGATGTATTGTTTTTTTTTTTTCTTTTTTTTT [CACACA_negctrl_site1238] | 9.64
37 | GAACGAAACTTTCTTACACACATTGAAATTTTTTTC [CACACA_site1779] | 10
38 | TTATAAAAGGACTTCTGTACGAATTTTTTTTAATAA [XGTACX_site1411] | 9.24
39 | TACTCACAATGGGGTCTACAAAAAAAAAAAAATAAA [XGTACX_negctrl_site229] | 9.26
40 | TCAAGAATTATATAAACACACATACATACACCCATA [CACACA_site5126] | 10.8
41 | TTTTATTTCATTTGTTGTACTTTCAAAATATTATTA [XGTACX_site2192] | 9.66
42 | AAGAATAAAGAATGGTGTACATGCATATAAAATATT [XGTACX_site5707] | 9.85
43 | ATGTTATATATGTATTGTACGTATTTTGTATATTAT [XGTACX_site6607] | 9.91
44 | AGTGTTTTTTATAAAGTGCAATATAAAAACAAAATG | 9.74
